Values joined by “and” are separate entries in the source; they are usually repeats but may differ in a detail not shown here. Equal values may be shown once. Screen size: about 420,000 compounds; about 75 (0.02%) were called active. The shares of active, inactive and inconclusive entries below differ from those in the screen. Calls come from the whole dose curve; as a rule, active = well fitted activation curve with a large enough effect; inconclusive = small, poorly fitted or top-dose-only effect; inactive = no such curve, though single readings can be large or run the other way. Potencies beside an inconclusive call are fits to weak or partial responses and may not hold up.
Test: qHTS for Inducers of the Endoplasmic Reticulum Stress Response (ERSR) in Human Glioma: qHTS; note: nearly all actives have a fitted effect of over 35% in size; for activation: % of control where 0% means no effect
Settings: U87-MG GRP78 promoter luciferase reporter, 16 h; activation: stronger effect = higher value
How it was run: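 Stably transfected U87-MG glioma cells carrying a GRP78-based luciferase sensor; 16 h compound incubation. Luminescence end-point read 10 min after Bright-Glo addition at room temperature.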
Potency is the fitted concentration of half-maximal effect; tags give direction and shape of the fitted curve.

Row | Compound | activation | Potency
1 | CCOc1ccc(S(=O)(=O)Nc2cc(C)ccn2)c2ccccc12 | inactive: -4.27% | –
2 | O=C(/C=C/c1ccccc1)NC(=S)NNC(=O)c1cnccn1 | – | inconclusive: 5.62 µM [activator, partial curve, poor fit]
3 | CCC(CC)c1nnc(NC(=O)Cc2c[nH]c3ccccc23)s1 | inactive: 3.33% | –
4 | Oc1ccc(/C=N\Nc2nncc(-c3ccccc3)n2)cc1 | – | inconclusive: 11.2 µM [activator, full curve]
5 | Cc1ccc(S(=O)(=O)N2[C@@H](c3ccc(C(C)(C)C)cc3)C(C(=O)O)=CC[C@H]2c2ccc(C(C)C)cc2)cc1 | – | inconclusive: 50.1 µM [activator, single point]
6 | O=C1C=CC(=O)N1c1ccc(O)cc1 | inactive: -14.5% | –
7 | CCN(CC)S(=O)(=O)c1ccc(Cl)c(C(=O)Oc2cccnc2)c1 | – | inconclusive: 5.01 µM [activator, single point]
8 | CCc1ccc(/C(C)=N\Nc2ccc([N+](=O)[O-])cc2)cc1 | – | inconclusive: 10 µM [activator, partial curve, poor fit]
9 | CC(C)(C)OC(=O)NCCCC[C@H](NC(=O)c1[nH]cnc1C(=O)N[C@@H](Cc1ccccc1)C(=O)OCc1ccccc1)C(=O)OC(C)(C)C | – | inconclusive: 28.2 µM [activator, single point]
10 | CCOc1ccc2c(c1)ncn2Cc1ccccc1 | – | inconclusive: 2.24 µM [activator, partial curve, poor fit]
11 | Cc1[nH]c(-c2ccc(F)cc2)cc1C(=O)N1CCN(c2ccc(Cl)cc2)CC1 | inactive: -0.493% | –
12 | CCOC(=O)C1=C(C)N(Cc2ccccc2)C(=O)NC1c1ccc(OC)cc1 (stereo unspecified) | inactive: -5.32% | –
13 | Cc1ccc(SC[C@H](c2ccccc2)N2CCN(C)CCC2=O)cc1 | inactive: 7.57% | –
14 | CCOc1ccc(NC(=O)c2cn(-c3ccc(OCC)cc3)c(=O)c3cc(OC)c(OC)cc23)cc1 | inactive: -5.22% | –
15 | C/C(=N\O)c1ccc2c(c1)CC(C)O2 (stereo unspecified) | – | inconclusive: 50.1 µM [activator, single point]
16 | O=C(CCl)Nc1cccn2ncnc12 | – | inconclusive: 15.8 µM [activator, full curve, poor fit]
17 | CCCCNC(=O)c1cc2ccccc2s1 | – | inconclusive: 10 µM [activator, partial curve, poor fit]
18 | COc1ccc(S(=O)(=O)N2CCN(C(=O)c3ccc([N+](=O)[O-])o3)CC2)cc1 | – | inconclusive: 35.5 µM [activator, partial curve, poor fit]
19 | Cc1cccc(C)c1NC(=O)C(c1ccccc1OC(F)(F)F)N1CCN(c2ccc(F)cc2)CC1 (stereo unspecified) | – | inconclusive: 11.2 µM [activator, single point]
20 | C[C@@H]1C[C@H]2[C@@H]3C[C@H](F)C4=CC(=O)C=C[C@]4(C)[C@@]3(F)[C@@H](O)C[C@]2(C)[C@@]1(O)C(=O)COC(=O)C(C)(C)C | inactive: -3.75% and inactive: -3.64% | –
21 | CC(C)C(NS(=O)(=O)c1cccs1)C(=O)N1CCC(C(N)=O)CC1 (stereo unspecified) | – | inconclusive: 70.8 µM [activator, single point]
22 | CCOc1cc(/C=C2\COc3ccccc3C2=O)ccc1OCC(=O)N(C)C | – | inconclusive: 20 µM [activator, single point]

Row | Compound | activation | Potency
23 | O=C(NNc1nc2cc3c(cc2s1)OCO3)c1ccc(F)cc1 | inactive: -0.715% | –
24 | CSc1cccc(NC(=O)/C=C/c2ccco2)c1 | inactive: 13% | –
25 | CCOC(=O)C1CCN(S(=O)(=O)c2ccc3c(c2)CC(=O)N3C)CC1 | inactive: -1.41% | –
26 | O=S(=O)(c1cccs1)N1CN(Cc2ccc(Cl)cc2)c2nc3ccccc3nc21 | inactive: 3.67% | –
27 | CN1CCN(Cc2c(O)c(Cl)cc3c(-c4ccccc4)cc(=O)oc23)CC1 | – | inconclusive: 28.2 µM [activator, single point]
28 | COc1ccc(C(=O)Nc2cccc(-c3nc4cccnc4s3)c2C)c(OC)c1 | inactive: -2.95% | –
29 | COc1ccccc1NC(=O)Nc1ccc(Br)cn1 | – | inconclusive: 39.8 µM [activator, partial curve, poor fit]
30 | COc1ccc(-c2csc(N3CCOCC3)n2)cc1OC | – | inconclusive: 6.31 µM [activator, partial curve, poor fit]
31 | CN(C)c1ccc(-c2cncnc2NCCN2CCOCC2)cc1 | – | inconclusive: 50.1 µM [activator, single point]
32 | CCNc1ccccc(C(=O)/C=C/c2ccc3c(c2)OCO3)c1=O | – | inconclusive: 14.1 µM [activator, full curve, poor fit]
33 | Cc1c(Cl)cccc1N1C(=O)c2ccccc2C1=O | inactive: -6.5% | –
34 | CCn1c(Cc2ccccc2)nnc1SCC(=O)Nc1ccc(N)cc1 | inactive: -3.54% | –
35 | O=[N+]([O-])c1ccc(N2CCN(c3ccccc3O)CC2)c(Cl)c1 | inactive: 0.219% | –
36 | COc1ccc(Br)c(C(=O)NNC(=O)c2ccc(NS(=O)(=O)c3cccs3)cc2)c1 | – | inconclusive: 20 µM [activator, single point]
37 | Cc1ccc(NC(=O)CS(=O)CC(=O)N(CC(=O)NC(C)(C)C)c2cccc(C)c2C)cc1 (stereo unspecified) | inactive: -0.952% | –
38 | COc1ccc(Nc2nc(N)c3ccccc3n2)c(OC)c1 | – | inconclusive: 2.24 µM [activator, partial curve, poor fit]
39 | Clc1ccc(NC2=NCCC2)cc1Cl | – | inconclusive: 15.8 µM [activator, single point]
40 | Cc1cccc(CSc2nc3nc(C)cc(C)n3n2)c1 | – | inconclusive: 28.2 µM [activator, single point]
41 | CCOP(=O)(c1ccccc1)c1nc(-c2ccccc2Cl)oc1N1CCCCC1 (stereo unspecified) | – | inconclusive: 44.7 µM [activator, single point]
42 | O=C(Nc1nc2c(F)cc(F)cc2s1)c1ccc([N+](=O)[O-])o1 | – | inconclusive: 12.6 µM [activator, partial curve, poor fit]
43 | CN1C(=S)N(c2cccnc2)C(=O)/C1=C\c1ccc(C(C)(C)C)cc1 | – | inconclusive: 44.7 µM [activator, partial curve, poor fit]
44 | N=C1S/C(=C\c2ccco2)C(=O)N1c1nccs1 | – | inconclusive: 14.1 µM [activator, full curve, poor fit]

Row | Compound | activation | Potency
45 | CC(C)(C)n1ncc2c(=O)n(Cc3cccc(F)c3)cnc21 | inactive: 3.23% | –
46 | N#CC1=C(O)CCCn2c1nc1ccccc1c2=O | – | inconclusive: 11.2 µM [activator, partial curve, poor fit]
47 | Cc1ccc(N/N=C/c2ccncc2)cc1 | – | inconclusive: 10 µM [activator, partial curve, poor fit]
48 | O=C(O)CCn1cc(/C=C/C(=O)c2ccc(Cl)cc2)c(-c2cccc(Br)c2)n1 | – | inconclusive: 44.7 µM [activator, partial curve, poor fit]
49 | COc1ccc(C(=O)O/N=C/c2c(C(F)(F)F)nn(C)c2SCc2ccccc2Cl)cc1 | – | inconclusive: 15.8 µM [activator, full curve, poor fit]
50 | COCCNC(=S)Nc1ccc2[nH]c(=O)[nH]c2c1 | inactive: -4.81% | –
51 | CNC(=O)/C(C#N)=C/c1cccc(Oc2ccccc2)c1 | – | inconclusive: 44.7 µM [activator, partial curve, poor fit]
52 | CN1/C(=C/C=C/c2n(C)c3cc([N+](=O)[O-])c([N+](=O)[O-])cc3[n+]2C)C(C)(C)c2ccccc21 | inactive: -9.36% | –
53 | COc1ccc(/C=C/C(=O)c2ccc(O)cc2O)cc1OC | – | inconclusive: 14.1 µM [activator, partial curve, poor fit]
54 | COc1ccccc1CN1CC(C(=O)N(C)CCOc2ccccc2)CCC1=O (stereo unspecified) | – | inconclusive: 11.2 µM [activator, single point]
55 | Cc1ccc(-c2ccc(C(=O)N3CCc4nnc(CNC(=O)c5ccccc5)n4CC3)cc2)cc1 | inactive: -3.28% | –
56 | COc1ccc(C(=O)Oc2c(CN3CCOCC3)cc(Cl)c3cccnc23)cc1 | – | inconclusive: 50.1 µM [activator, single point]
57 | CC1(C)CC(=O)C2=C(C1)OC(N)=C(C#N)C2C#Cc1ccccc1 (stereo unspecified) | – | inconclusive: 28.2 µM [activator, single point]
58 | FC(F)Oc1ccc(C2N=C(c3ccccc3)NO2)cc1 (stereo unspecified) | – | inconclusive: 50.1 µM [activator, partial curve, poor fit]
59 | O=C(O)c1cc2n(n1)C(C(F)(F)F)CC(c1ccccc1)N2 (stereo unspecified) | – | inconclusive: 11.2 µM [activator, single point]
60 | N/C(=N\N=C\c1cccc([N+](=O)[O-])c1)c1nonc1N | – | inconclusive: 5.01 µM [activator, full curve, poor fit]
61 | Cc1cc(F)ccc1NCc1ccccc1[N+](=O)[O-] | inactive: -0.0823% | –
62 | Oc1ccc(Cl)cc1CNc1ccc(Br)cn1 | – | inconclusive: 7.08 µM [activator, partial curve, poor fit]
63 | O=C(Nc1ccc2c(c1)OCO2)N1CCN(c2ccccc2)CC1 | inactive: 1.38% | –
64 | O=C(CC(SCCO)c1ccc2c(c1)OCO2)c1ccco1 (stereo unspecified) | – | inconclusive: 50.1 µM [activator, partial curve, poor fit]
65 | CC(=O)Nc1ccc(C(=O)CCl)cc1 | – | inconclusive: 28.2 µM [activator, single point]
66 | COC(=O)c1ccccc1NC(=O)c1noc2c1CCCC2 | – | inconclusive: 14.1 µM [activator, single point]
